Measurements from article PMC6212790.
The list shows a part of the results. At the low end of the ranking the order means little.

biological target: T1, GST-Rok-C97-191 (UniProt O34857); assay: protein binding microarray; conditions: Rok is a gene silencer of Bacillus subtilis; high values mean tight binding; most listed sequences are background and not binding sites; double strand, one strand shown;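 further: rank score from −0.5 (least bound) to 0.5 (best bound)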
T1 sequence: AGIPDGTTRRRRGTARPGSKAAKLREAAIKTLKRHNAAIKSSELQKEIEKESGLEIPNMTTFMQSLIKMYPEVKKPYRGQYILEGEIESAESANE

Sequence | binding signal [E-score]
AATAGCGT | 0.0584
CGACACCA | -0.0352
CATTGTAC | 0.109
AGTTTTCC | 0.145
AAAAGTAA | 0.0523
ACAAATTA | 0.24
AGTGCATA | 0.0367
CTCTGGTC | -0.0708
ACGACTTC | 0.0725
AATACTGA | 0.0851
CCGGATTA | 0.117
CTTCAGAA | -0.00738
CTAAAAAA | 0.168
GTGGCGCA | -0.223
ACCATCTG | 0.154
ACCATAAC | 0.0976
GCGTGCCC | -0.26
GTACCCAA | -0.0765
ATATTATG | 0.0424
GACGCCAC | -0.229
CGATTTAG | 0.147
CTCGCCAG | -0.104
ATGACGCA | -0.146
ACAAACGC | -0.183
CAGCCTCA | -0.127

Sequence | binding signal [E-score]
AACGGCGT | -0.00296
ATCTTGTA | 0.261
ATGTATAG | 0.264
ACTTCATG | 0.025
ACGACGTC | -0.0121
CCACTAGA | 0.204
GAATCGTA | 0.179
CCCGTTCC | -0.0375
CCCTCTAC | -0.295
ACCATGTC | -0.156
GAACCTGC | -0.221
ATAGTAAT | 0.396
GGCACTAA | -0.0784
GGCGATAA | 0.0821
TACCTGCA | 0.193
AAAGCCTG | -0.0554
AGGGCGTA | -0.357
GACAACCA | -0.0731
GTCCAATA | 0.0328
GAGTTACC | 0.183
AACGGGTC | 0.00135
AACCCAAC | 0.0417
ACATTACG | 0.154
AACGGTGG | -0.0631
TATCGAGA | 0.0925

Sequence | binding signal [E-score]
CGGACTAG | -0.0749
TCGGTACA | 0.0633
TATTGTGA | 0.122
GTGGGTAA | 0.0434
ACCGAGAG | 0.118
ACTACCGC | 0.232
ATCACCCA | -0.153
CCACGACC | -0.202
TAGGTAGA | 0.386
CGGCGCAG | -0.159
CCACGCGA | -0.135
ACTTCTGC | 0.109
ACCGATCC | -0.162
TGTTACAA | 0.217
CTTGCCTC | -0.142
AAATGAAT | 0.0225
GCTCTGCC | -0.296
TAGTTCAA | 0.117
AGCGTGAG | -0.156
TATCTGAA | 0.169
TCGGATAA | 0.0115
CAGCTAGG | -0.173
AACCGGTT | 0.0733
GTCATTAA | -0.0908
GCCTGCTA | -0.111

Sequence | binding signal [E-score]
GTTCTTTA | -0.144
TGAATGCA | -0.0484
AAGTGCCC | -0.158
ACGGTGGA | -0.0421
CACTGTGC | -0.0426
GCGTCATA | -0.12
AGGCCTAA | -0.0119
CGCAGACG | -0.227
AGTTACCG | 0.194
AAAGCCGA | -0.00482
CTCTTTGC | -0.217
CTGTAAGC | -0.175
CGACTCTA | -0.0898
GGGATTAC | -0.0922
ATTTTATG | 0.229
GAGCGCCC | -0.414
ATTAGGCA | -0.0234
CTATTTTA | 0.302
CTTTCAAC | -0.0594
GCTAGTAA | 0.286
AAATCATC | -0.112
TATACACA | 0.0896
TACTAGGA | 0.115
CATCATCC | -0.118
CGGTATGA | 0.0776

Sequence | binding signal [E-score]
ACGGGGAA | 0.0307
CGTGTCAG | -0.279
CCGGCATA | -0.00274
AATTCTGT | 0.0907
CCGCTTCG | -0.312
TGTTGCAA | 0.227
TAATCATA | 0.161
TCTCGCAA | -0.00541
CCCAGCTC | -0.258
GGCGGGTA | -0.246
ATGGGGGA | -0.256
GATTGGCC | -0.179
CGGGCCGC | -0.334
ATACACTA | 0.197
AACGACGA | -0.121
ATACGCGG | -0.163
AGGCTACT | -0.109
ATTCTCGG | 0.0178
CGCAAGTA | 0.0722
GTGGGAAC | -0.153
GCATCACA | 0.0845
TCGTCTCA | -0.21
CGTCTGAG | -0.223
CGAGGACG | -0.358
AGCAAGTA | 0.167

Sequence | binding signal [E-score]
CTATTGCC | 0.0125
GCGTGAAA | -0.111
TAGTATAA | 0.413
GTACAGGA | -0.12
GGCGCGGA | -0.261
GCTTATGA | -0.145
AGAATGTG | 0.00607
AGGATACA | -0.014
AAACTAAT | 0.36
ATTGGGTC | -0.0338
AACTTAAA | -0.0182
ACGTAAAT | 0.228
CGCCTACA | 0.0604
CCGGGAGC | -0.267
AAGGTCGA | 0.0853
CGATTATC | 0.0925
AGCGCCAC | -0.135
CAGTCGGC | -0.213
GCGTTGAC | -0.0864
CACTGAAC | 0.0486
AAAATCAC | 0.0515
CCATCTTA | 0.037
TACACGCA | 0.182
CACGATAA | 0.0227
AACCGCTC | -0.214

Sequence | binding signal [E-score]
GAAAAGGC | -0.139
GGCACCAC | -0.0641
GTCTGAAA | 0.11
ACCTCAGT | -0.0743
ACGACGGC | -0.214
CATTCGAC | -0.047
ACGGATTA | -0.0723
ACATGTTC | 0.0749
CACCACAG | -0.114
TCTTTTAA | 0.103
CCGGGTGA | -0.0695
AAAACTCT | 0.152
ATGGCAGG | -0.221
CTAGTGAC | 0.101
AAGGCGAT | -0.0931
AGCGGGAC | -0.306
GACCGTAC | -0.00807
AGACGGCC | 0.00816
GCAATAAA | 0.0872
AATCCAAT | 0.0647
GCACTCAA | -0.0906
CTTTTCTA | 0.303
CATTCTTA | 0.0205
AGGGGACT | -0.157
ACCAGTTC | -0.0888

Sequence | binding signal [E-score]
CGTGCACA | 0.056
GCCAAGCC | -0.0184
AGGTGTAC | 0.03
AGGTCTGA | -0.158
AACATCGG | -0.133
ATCTCCTA | 0.0362
AAATGCAT | 0.252
CGACTGCA | -0.131
GAACTAGA | 0.335
GTCTCGTA | 0.00987
CTCCTTGA | -0.109
CCCAGCTA | -0.0297
ATGTAGAG | 0.246
CACAAATA | 0.243
ACGTCATC | -0.0226
GATATTTA | 0.328
ATGTCATG | -0.00603
CGTGGTAC | -0.0859
AGTAAAAA | 0.341
GCACATCC | -0.127
AAACCCGG | 0.00206
CTGTCAAA | -0.122
ACCACATC | -0.0738
CGCCCTAG | -0.107
ACTCTCCT | -0.0534

Sequence | binding signal [E-score]
ATGGCGAA | 0.00598
TATTTAGA | 0.0799
ATAGAATC | 0.274
GCACCCTA | 0.17
AGAGAATA | 0.131
GAGATGAC | -0.226
CCACTACG | 0.0791
CGACCTAC | -0.0743
ACACGTCT | -0.0751
ATGGACAA | -0.13
ATCTTTTG | -0.131
ACCTGACT | -0.186
ATTCGTCA | 0.0355
GATGCGCC | -0.213
AAAGACCC | -0.00616
CCTAGTCA | -0.0304
ATTTCGCA | 0.195
ATCTTACG | 0.129
CATTCGAG | -0.0543
